From PubChem BioAssay AID686979 (National Center for Advancing Translational Sciences (NCATS), 2013)
Out of some 420,000 compounds screened, about 50,000 (12%) were called active. The shares of active, inactive and inconclusive entries below differ from those in the screen. Calls come from the whole dose curve; as a rule, active = well fitted inhibition curve with a large enough effect; inconclusive = small, poorly fitted or top-dose-only effect; inactive = flat fitted curve, though single readings scatter. No potency is given beside an inconclusive call; the fits are too rough. More than one record can exist for a structure, and the calls need not agree.

Experiment: qHTS for Inhibitors of human tyrosyl-DNA phosphodiesterase 1 (TDP1): qHTS in cells in presence of CPT; note: nearly all actives have a fitted effect of over 55% in size
Conditions: chicken DT40 Tdp1-/-;hTDP1 cells + 20 nM CPT, ATP luminescence, 48 h; series mostly up to 46.2 µM
How it was run: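 Chicken DT40 Tdp1-/- cells complemented with human TDP1, 400 cells/well, exposed to compounds plus 20 nM camptothecin for at least 48 h at 37 C; viability read as ATP content by CellTiter-Glo luminescence.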
Potency is the fitted concentration of half-maximal effect; tags give direction and shape of the fitted curve.

Structure (SMILES) | Potency
Cc1nn(C)c(C)c1/C=C1/CC2C3CC=C4CC(O)CCC4(C)C3CCC2(C)C1=O (configuration not stated) | inconclusive [inhibitor, single point]
CCN(CC)c1ccc(CN2CC=C(c3ccc(F)cc3)CC2)cc1 | active: 18.4 µM
Clc1ccc(COC(Cn2ccnc2)c2ccc(Cl)cc2Cl)c(Cl)c1 (configuration not stated) | active: 18.4 µM
O=C(Nc1ccccc1)c1c(O)[nH]c(=S)[nH]c1=O | inconclusive [inhibitor, single point]
CC1=CC2OC3CC4OC(=O)C=CC=CC(=O)OCCC(C)C(O)C(=O)OCC2(CC1O)C4(C)C31CO1 (configuration not stated) | active: 0.146 µM
Cc1ccc(Cn2nnnc2CN2CCC(n3nnc4ccccc43)CC2)cc1 | inactive
CC(=O)Nc1ccc2c(c1)CC1(C(=O)N(C)C(=O)N(C)C1=O)C1CCCN21 (configuration not stated) | inactive
O=C(CCc1ccccc1)N1Cc2cc(N3CCOCC3)ccc2-n2nncc2C1 | inactive
C=Cc1ccc(Cn2c(C)c(CNCCc3cc(OC)ccc3OC)c(C(=O)O)c2C)cc1 | inconclusive [inhibitor, single point]
COC(=O)C1=C(c2cc3ccccc3o2)C[C@@H]2CC[C@H]1N2C(=O)NC(C)C | active: 23.1 µM
COC(=O)C1=C(c2ccc(F)cc2OCc2ccccc2)C[C@@H]2CC[C@H]1N2C(=O)NCc1ccc([N+](=O)[O-])cc1 | inconclusive [inhibitor, single point]
CC1(C)CN=C(NCc2ccccc2)S1 | inactive
COc1cc2oc(=O)c(CC(=O)N3C[C@H]4C[C@@H](C3)c3cccc(=O)n3C4)c(C)c2cc1Cl | inactive
COc1ccc(N2C(=O)C(=O)N(c3ccc(OC)cc3)P2(=O)N(CCCl)CCCl)cc1 | inactive
CCOc1cc(-c2nc3c(C)cccn3c2NCC2CCCO2)ccc1O (configuration not stated) | inconclusive [inhibitor, partial curve]
N#Cc1c(Br)n(C2OC(CO)C(O)C2O)c2ncnc(N)c12 (configuration not stated) | active: 1.46 µM
CC(=O)c1ccc(S(=O)(=O)N2CCN(c3nc4c(C)c(C)ccc4cc3C#N)CC2)cc1 | active: 7.08 µM
O=C1Nc2ccccc2C(c2ccccc2)=NC1O (configuration not stated) | inconclusive [inhibitor, single point]
FC(F)(F)c1cccc(NC2=NCCS2)c1 | inactive
Cc1cc(OCC(=O)N2CCCN(C)CC2)ccc1Cl | inactive
OC1/C(=C/c2ccccc2F)N2CCC1CC2 (configuration not stated) | inactive
CC(=O)O[C@H]1CCC2C3CC[C@H]4[C@@H](O)[C@H](O)CC[C@]4(C)C3CC[C@@]21C (some centres not stated) | inactive
